# According to PubChem BioAssay AID686971 (National Center for Advancing Translational Sciences (NCATS), 2013):
# Screen size: about 360,000 compounds; about 7,500 (2.1%) were called active. Inconclusive means that the source gave no clear call. Such entries were picked first, then a sample of the others. The call rests on the fitted dose curve; in most records, active means well fitted cell-killing curve with a large enough effect; inconclusive means small, poorly fitted or top-dose-only effect, or effect the other way, or another doubt; inactive means no such curve, though single readings can be large or run the other way. No potency is given beside an inconclusive call; the fits are too rough.
# Experiment: qHTS for induction of synthetic lethality in tumor cells producing 2HG: qHTS for the HT-1080-IDH1KD cell line;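 on activity, negative = toxicity: 0% = DMSO wells and -100% = cell-free medium wells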
# Settings: HT-1080 IDH1 knockdown viability, ATP luminescence, 48 h; activity, negative = toxicity: at 46.1 µM (top of the series) unless noted
# Outline: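 CellTiter-Glo luminescence after 48 h compound exposure at 37 degrees C of IDH1-knockdown HT-1080 cells in 5% FBS RPMI. %Activity scaled between DMSO wells and cell-free media wells, with curves fitted and assigned curve classes.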
# Potency means the concentration at half of the fitted maximal effect; tags describe the fitted curve by direction and shape.
SMILES,"activity, negative = toxicity",Potency
COC(=O)CCN(C(=O)c1ccc(OC(C)=O)cc1)c1ccccn1,inactive: 5.25%,
Cc1ccn2c(=O)c(NC(=O)c3cccs3)c(C)nc2c1,inactive: -1.66%,
CCN(CC)S(=O)(=O)c1ccc(/C=C/C(=O)Nc2ccc(F)c(F)c2F)cc1,inconclusive: -28.3% [cytotoxic],
O=C(CSCc1c(F)cccc1F)Nc1ccccc1,inactive: 25.5%,
COc1ccccc1C(=O)N/C(=C/c1ccco1)C(=O)Nc1cccc(C(=O)O)c1,inactive: 1.42%,
C=C1CCC[C@]2(C)C[C@H]3OC(=O)C(CNC(C)CCCC(C)C)[C@H]3CC12 (some centres not stated),,"inconclusive [cytotoxic, single point]"
Cc1ccc(C2Nc3cccc4cccc(c34)N2)s1,inactive: -13%,
O=C1C(=C(I)I)c2ccccc2-c2ccccc21,,active: 5.17 µM
O=C(/C=C/c1cccc2ccccc12)c1ccncc1,,"inconclusive [cytotoxic, single point]"
Cc1ccccc1OCC(=O)NNC(=O)Nc1ccc(Cl)cc1,,active: 4.61 µM
O=C(COn1nnc2ccc(Cl)cc21)NC12CC3CC(CC(C3)C1)C2,,"inconclusive [cytotoxic, single point]"
COc1ccc(C(NC(=O)C2CCN(CCOc3ccc(Cl)cc3Cl)CC2)c2ccccn2)cc1 (configuration not stated),,active: 20.6 µM
C[C@@H]1CN([C@H](C)CO)C(=O)c2cccc(NC(=O)Nc3ccc(C(F)(F)F)cc3)c2O[C@H]1CN(C)S(=O)(=O)c1cccs1,,"inconclusive [cytotoxic, single point]"
Cc1ccc(C(=O)N(CN2CCCC2=O)c2ccccc2)cc1C,inactive: -0.541%,
CCC(CC)C(=O)N(C)c1c(C)nc2c(OCc3cc(Cl)cc(Cl)c3)cccn12,,"inconclusive [cytotoxic, single point]"
Fc1ccc(-n2cc(CNCCc3ccccn3)c(-c3ccccc3Cl)n2)cc1,,active: 20.6 µM
CC1CCCN(c2ccc(C(=O)Nc3cccnc3)cc2[N+](=O)[O-])C1 (configuration not stated),,"inconclusive [cytotoxic, partial curve]"
CCCCOc1ccc(C(=O)NNC(=O)C2C3CCC(C3)C2C(=O)O)cc1 (configuration not stated),inactive: -15.6%,
CC1CCCCN1C(=O)c1ccc(OC2CCN(S(=O)(=O)N(C)C)CC2)cc1 (configuration not stated),,"inconclusive [cytotoxic, single point]"
Cc1cccc(-n2ccnc2SCC(=O)O)c1C,inactive: 24.3%,
CC(O)CN=c1cc(-c2ccccc2)oc2ccc(Cl)cc12 (configuration not stated),,"inconclusive [cytotoxic, partial curve]"
Cc1cc(C)c(-c2c(N)cc(Br)cc2Br)c(N)c1,,"inconclusive [cytotoxic, single point]"
O=C(NNC(=O)c1csc(-c2ccccc2)n1)c1ccccc1,,"inconclusive [cytotoxic, single point]"
COc1ccccc1OCCCN1CCC(C(O)(c2ccccc2)c2ccccc2)CC1,,active: 16.4 µM
COc1ccc(C(CCNCc2ccc(N(C)C)cc2)c2ccccc2OC)cc1 (configuration not stated),,active: 29.1 µM
COc1ccc(C(=O)Nn2c(CC(C)C)nc3cc(Cl)ccc3c2=O)c(OC)c1,inactive: -7.42%,

SMILES,"activity, negative = toxicity",Potency
O=C(COC(=O)c1cc([N+](=O)[O-])ccc1N1CCOCC1)NCc1ccccc1,inactive: -4.11%,
C=CCC(NCc1ccccc1)c1ccc(OC)cc1 (configuration not stated),inactive: -6.81%,
COc1ccccc1-c1cc(C(=O)Nc2cccnc2)no1,,active: 0.251 µM
CC(C)CC1NC(=S)N(Cc2ccccc2)C1=O (configuration not stated),,"inconclusive [cytotoxic, single point]"
CCCCN(C(=O)NC(=O)C1=C(N2CCOCC2)/C(=C/c2ccccc2)CC1)S(C)(=O)=O,,"inconclusive [cytotoxic, single point]"
CCOc1ccc(N2CC(C(=O)Nc3cccc(C(=O)NC4CC4)c3)CC2=O)cc1 (configuration not stated),inactive: 6.18%,
O=C(NCCn1cc(SCc2ccccc2)c2ccccc21)c1c(F)cccc1F,,"inconclusive [cytotoxic, single point]"
CCN(CC)S(=O)(=O)c1cccc(NC(=O)COC(=O)c2[nH]c(C)c(C(C)=O)c2C)c1,inconclusive: -4.3% [cytotoxic],
COc1ccc(C)cc1S(=O)(=O)Nc1cc2c3c(c1)CC(=O)N3CCC2,,"inconclusive [cytotoxic, partial curve]"
CC(=O)Nc1nc(=O)c2ccccc2s1,,"inconclusive [cytotoxic, single point]"
O=C(Nc1ccn(Cc2c(F)c(F)cc(F)c2F)n1)c1ccc(COc2ccccc2Cl)cc1,,"inconclusive [cytotoxic, single point]"
Cc1c(CN(C)C)c2c(n1Cc1ccccc1)C(=O)c1ccc(Br)cc1-2,,"inconclusive [cytotoxic, partial curve]"
CCOc1ccc(Nc2ccnc3cc(Cl)ccc23)cc1,,"inconclusive [cytotoxic, single point]"
COC(=O)c1cn(NC(=O)Cc2c(F)cccc2Cl)c(=O)c2ccccc12,inactive: 4.06%,
Nc1ncc(Br)cc1S(=O)(=O)Nc1cc(C(F)(F)F)cc(C(F)(F)F)c1,,active: 3.66 µM
O=C(NN=C(c1ccccc1)c1ccccn1)c1ccccc1,,"inconclusive [cytotoxic, full curve]"
CCOC(=O)c1cnc2ccc(OCC)cc2c1NCc1cccnc1,,"inconclusive [cytotoxic, partial curve]"
O=C(Cn1cc2c(n1)CCCCC2)NCc1ccccn1,inactive: 6.76%,
COc1cccc(-c2oc3c(c2C#CC2(N)CCCCC2)C(O)CCC3)c1 (configuration not stated),,"inconclusive [cytotoxic, single point]"
O=C(CCS(=O)(=O)c1ccccc1)Nc1nc2cc3c(cc2s1)OCO3,,"inconclusive [cytotoxic, single point]"
Cc1ccc2[nH]c(=O)c(CN(CCCN(C)C)C(=O)Nc3ccc(Cl)cc3)cc2c1,inactive: 2.04%,
O[C@@H]1C[C@H](c2ccc(Cl)cc2)N(Cc2cccs2)C[C@H]1n1cc(-c2ccc(F)cc2)nn1,inactive: 13.8%,
O=C(Nc1nc2ccccc2[nH]1)c1cccc(F)c1,,"inconclusive [cytotoxic, single point]"
Cc1cc(C(=O)OCC(=O)NCc2ccco2)c(C)n1-c1ccc(F)cc1,,"inconclusive [cytotoxic, full curve]"
COc1cc(C=C2CN(C)C(=O)C2=O)ccc1O,inactive: 6.8%,
O=CNn1cnc2c(oc3nc(-c4ccccc4)cc(-c4ccco4)c32)c1=O,inactive: -1.74%,

SMILES,"activity, negative = toxicity",Potency
COc1ccc(CCNCc2ccc(OCc3ccccc3)cc2)cc1,,active: 18.4 µM
CCOc1ccc2nc(S(=O)(=O)NC(=O)C3(C)CCN3C(=O)c3c(C)noc3C)sc2c1 (configuration not stated),inactive: 5.85%,
CC(=O)OC(C(=O)NC1CCCCC1)c1cccc(C)c1 (configuration not stated),inactive: 10.3%,
C/C(=N\NC(=S)Nc1ccc(F)cc1)c1ccc2c(c1)OCCO2,,"inconclusive [cytotoxic, single point]"
COc1ccc(Cl)cc1NC(=O)CN(C)C(=O)c1cc2c(F)cccc2s1,,"inconclusive [cytotoxic, single point]"
COc1ccc(NC(=O)c2ccccc2NC(=O)c2cccs2)cc1,inactive: -6.97%,
CC(C)(C)c1csc(NNC(=O)c2ccc(Cl)cc2)n1,,"inconclusive [cytotoxic, partial curve]"
CCn1cc(-c2nnnn2-c2ccc(Cl)cc2)c(=O)c2ccccc21,inactive: -7.22%,
S=C(Nc1ccccc1)Nc1nc2ccccc2n1CCOc1ccccc1,,"inconclusive [cytotoxic, single point]"
COc1ccc(/C=C2\SC(=O)NC2=S)cc1OC,,"inconclusive [cytotoxic, partial curve]"
Cc1cccc(-n2c(C)cc(/C=N\NC(=O)c3cccs3)c2C)c1,,"inconclusive [cytotoxic, partial curve]"
NC(=S)NC(c1ccccc1)c1ccncc1 (configuration not stated),inactive: 6.78%,
CCOc1ccc2nc(NC(=O)c3ccco3)sc2c1,,active: 18.4 µM
Cc1ccc2nc3ccc(N4CCCC4)nn3c(=O)c2c1,inactive: 11.4%,
Cc1ccccc1OCc1occc1C(=O)Nc1cccc(-n2cnnn2)c1,,"inconclusive [cytotoxic, single point]"
O=C(COc1nsnc1N1CCOCC1)N/N=C/c1ccccc1O,,active: 14.6 µM
O=C(CN(C(=O)c1csnn1)c1ccccc1F)NCc1ccc2c(c1)OCO2,inactive: 0.139%,
COc1ccccc1C1(CCNC(C)c2cccs2)CCOC(C(C)C)C1 (configuration not stated),,"inconclusive [cytotoxic, single point]"
O=C(Nc1ccc(-c2cn3ccccc3n2)cc1)c1ccco1,,"inconclusive [cytotoxic, single point]"
Cc1ccnc(NS(=O)(=O)c2cccs2)c1,inconclusive: 9.61%,
Cc1cc(C)c(C)c(S(=O)(=O)Nc2ccccc2C(=O)NCCCn2ccnc2)c1C,,"inconclusive [cytotoxic, partial curve]"
O=C(CC[C@H]1O[C@@H](n2cnc3c(NC(=O)c4ccccc4)ncnc32)[C@H](O)[C@@H]1O)NCc1ccco1,inactive: 9.91%,
CC(C)c1ccc(CNc2ccc([N+](=O)[O-])cn2)cc1,,"inconclusive [cytotoxic, single point]"
COc1ccc(N2CC(C(=O)Nc3ccccc3N3CCCC3)CC2=O)c(OC)c1 (configuration not stated),,active: 23.1 µM
O=C(NN1C(=O)c2cc(Br)ccc2NC1c1cc(Br)cc(Br)c1O)c1ccncc1 (configuration not stated),,"inconclusive [cytotoxic, partial curve]"
